# The whole screen tested about 360,000 compounds, of which about 16,000 (4.4%) were called active. Inconclusive means that the source gave no clear call. Such entries were picked first, then a sample of the others. Calls follow the shape of the dose curve; as a rule, active = well fitted inhibition curve with a large enough effect; inconclusive = small, poorly fitted or top-dose-only effect; inactive = no such curve, though single readings can be large or run the other way. Potencies beside an inconclusive call are fits to weak or partial responses and may not hold up. Some structures have more than one record in an assay (separate samples or runs), and their calls can disagree.
# Target: Bromodomain adjacent to zinc finger domain protein 2B (Homo sapiens) (UniProt Q9UIF8)
# Test: qHTS Assay for Inhibitors of BAZ2B; also: nearly all actives have a fitted effect of over 60% in size
# Settings: AlphaScreen BAZ2B-H3K14Ac peptide displacement; series mostly up to 114 µM
# Method in brief: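 Complex of BAZ2B and biotin-H3K14Ac (50 nM apiece) forms over 30 min at RT, then faces library compounds up to 110 uM for another 30 min; AlphaScreen beads added, 20 min dark incubation, luminescence read.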
# Potency is read from the fitted curve at half-maximal effect; tags tell the direction and shape of the fitted curve.
# Sequence of UniProt Q9UIF8 (Q9UIF8 whole entry, looked up, the tested form may be a part): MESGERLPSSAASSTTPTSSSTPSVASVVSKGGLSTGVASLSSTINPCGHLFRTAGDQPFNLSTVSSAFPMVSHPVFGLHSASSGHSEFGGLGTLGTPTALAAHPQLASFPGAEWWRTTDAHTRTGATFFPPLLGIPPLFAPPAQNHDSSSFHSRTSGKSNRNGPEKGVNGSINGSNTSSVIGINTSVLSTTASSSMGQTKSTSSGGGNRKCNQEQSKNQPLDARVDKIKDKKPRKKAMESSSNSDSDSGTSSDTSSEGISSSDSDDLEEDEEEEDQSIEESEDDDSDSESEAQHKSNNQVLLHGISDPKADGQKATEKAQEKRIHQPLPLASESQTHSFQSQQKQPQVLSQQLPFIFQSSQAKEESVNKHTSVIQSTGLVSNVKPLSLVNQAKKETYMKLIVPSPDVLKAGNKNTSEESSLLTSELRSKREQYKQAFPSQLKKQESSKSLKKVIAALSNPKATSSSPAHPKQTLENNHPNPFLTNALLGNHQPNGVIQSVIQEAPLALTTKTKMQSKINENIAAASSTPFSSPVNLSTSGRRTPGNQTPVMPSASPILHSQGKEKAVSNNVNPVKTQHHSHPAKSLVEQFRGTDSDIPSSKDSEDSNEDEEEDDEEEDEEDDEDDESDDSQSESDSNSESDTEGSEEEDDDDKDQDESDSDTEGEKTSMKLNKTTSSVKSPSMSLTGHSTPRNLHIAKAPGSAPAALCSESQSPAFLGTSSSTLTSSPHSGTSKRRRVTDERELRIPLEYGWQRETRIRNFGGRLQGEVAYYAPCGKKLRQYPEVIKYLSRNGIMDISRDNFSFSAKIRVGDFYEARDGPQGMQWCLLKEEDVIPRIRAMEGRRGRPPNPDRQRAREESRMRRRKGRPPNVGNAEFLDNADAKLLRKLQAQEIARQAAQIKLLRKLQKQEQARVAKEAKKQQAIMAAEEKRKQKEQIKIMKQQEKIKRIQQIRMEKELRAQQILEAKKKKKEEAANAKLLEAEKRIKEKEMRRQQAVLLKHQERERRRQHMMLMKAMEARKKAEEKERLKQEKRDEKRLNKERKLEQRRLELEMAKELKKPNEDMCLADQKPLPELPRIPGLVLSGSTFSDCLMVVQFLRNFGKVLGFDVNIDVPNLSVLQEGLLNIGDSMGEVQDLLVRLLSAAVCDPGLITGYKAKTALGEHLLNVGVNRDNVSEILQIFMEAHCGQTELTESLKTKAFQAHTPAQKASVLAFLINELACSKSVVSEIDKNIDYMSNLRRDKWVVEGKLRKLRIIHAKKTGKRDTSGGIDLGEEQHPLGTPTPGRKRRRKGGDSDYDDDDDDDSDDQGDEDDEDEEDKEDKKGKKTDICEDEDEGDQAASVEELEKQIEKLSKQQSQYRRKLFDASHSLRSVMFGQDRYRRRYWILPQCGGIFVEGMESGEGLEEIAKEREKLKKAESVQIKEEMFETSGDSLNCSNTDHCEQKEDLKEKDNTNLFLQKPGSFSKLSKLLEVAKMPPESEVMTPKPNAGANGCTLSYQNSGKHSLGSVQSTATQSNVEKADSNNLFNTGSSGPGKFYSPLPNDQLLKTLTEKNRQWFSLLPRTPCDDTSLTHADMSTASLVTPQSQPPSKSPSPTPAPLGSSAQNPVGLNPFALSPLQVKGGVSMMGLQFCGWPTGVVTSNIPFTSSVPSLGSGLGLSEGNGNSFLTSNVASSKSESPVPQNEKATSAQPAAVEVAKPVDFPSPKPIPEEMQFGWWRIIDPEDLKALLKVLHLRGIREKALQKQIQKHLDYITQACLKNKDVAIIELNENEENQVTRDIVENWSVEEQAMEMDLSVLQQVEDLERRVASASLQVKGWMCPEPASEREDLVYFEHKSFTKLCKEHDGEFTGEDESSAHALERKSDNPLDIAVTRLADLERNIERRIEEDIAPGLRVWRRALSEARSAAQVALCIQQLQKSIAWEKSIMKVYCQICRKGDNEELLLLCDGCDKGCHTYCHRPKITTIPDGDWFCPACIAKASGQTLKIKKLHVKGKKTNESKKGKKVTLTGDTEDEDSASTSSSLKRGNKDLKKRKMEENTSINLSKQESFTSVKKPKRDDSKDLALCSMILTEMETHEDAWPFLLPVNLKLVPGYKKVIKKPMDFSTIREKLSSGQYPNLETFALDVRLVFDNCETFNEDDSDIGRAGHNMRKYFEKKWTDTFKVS
row,Structure (SMILES),Potency
1,CS(=O)(=O)c1ccc(C(=O)OCc2nnc(-c3ccc(Cl)cc3)o2)cc1[N+](=O)[O-],"inconclusive: 70.8 µM [inhibitor, single point]"
2,Cn1c2ccccc2c2nnc(NN)nc21,"inconclusive: 79.4 µM [inhibitor, single point]"
3,O=C(CNS(=O)(=O)/C=C/c1ccccc1)OCC(=O)N1CCC(Cc2ccccc2)CC1,inactive
4,Cn1c(N)c(C(=O)COC(=O)C2(c3ccc(F)cc3)CCCC2)c(=O)n(C)c1=O,inactive
5,CC(C)C(=O)NC(c1ccc(Cl)cc1Cl)c1ccc2cccnc2c1O (stereo unspecified),"inconclusive: 22.4 µM [inhibitor, single point]"
6,COc1ccc(CCNC(=O)CCCCCNc2nc(=S)[nH]c3ccccc23)cc1OC,"inconclusive: 63.1 µM [inhibitor, partial curve, poor fit]"
7,O=C(Nc1ccc(C(=O)O)cc1)/C(=C\c1ccco1)NC(=O)c1ccco1,inactive
8,CC(C)(C)c1ccc(OCC(=O)Nc2ccc(S(=O)(=O)Nc3ncccn3)cc2)cc1,inactive
9,Fc1ccc(N/N=C/c2ccncc2)c(F)c1,inactive
10,CCCn1c(NCc2ccccn2)nc2ccccc21,active: 56.2 µM
11,Cc1ccc(-n2c(Cc3cccn3C)nnc2SCC(N)=O)cc1,"inconclusive: 89.1 µM [inhibitor, single point]"
12,Cc1cc(-c2ccc(/C=N/n3cnnc3)o2)c([N+](=O)[O-])cc1C,"inconclusive: 22.4 µM [inhibitor, partial curve]"
13,CN=C1C([N+](=O)[O-])=CC=C2C1=NC1(CCCCC1)N2O,"inconclusive: 79.4 µM [inhibitor, single point]"
14,CCN(CC)S(=O)(=O)c1ccc(Cl)c(NC(=O)COC(=O)C2CCCCC2)c1,inactive
15,CC(C)(C)OC(=O)N1Cc2ccccc2C[C@H]1C(=O)O,"inconclusive: 100 µM [inhibitor, single point]"
16,Cc1c(C(=O)N2CCCCC2)c(S(=O)(=O)N2CCN(c3ccc(Cl)cc3)CC2)c(C)n1C,"inconclusive: 50.1 µM [inhibitor, partial curve]"
17,CCc1ccccc1NC1=NCC(=O)N1Cc1ccc2c(c1)OCO2,inactive
18,COc1ccc2c(c1)Cc1sc(NC(=O)c3cccc(C)c3)nc1-2,"inconclusive: 56.2 µM [inhibitor, partial curve]"
19,CCOc1ccc2[nH]c(C(=O)N/N=C/c3cccc(OC)c3OC)cc2c1,inactive
20,Cc1cc2c(c(=O)n1Cc1cccnc1)C(c1cccs1)C(C#N)=C(N)O2 (stereo unspecified),"inconclusive: 6.31 µM [inhibitor, single point]"
21,O=C(O)CSc1c2c(nc3cc(C(=O)Nc4cccc(C(F)(F)F)c4)ccc13)CCC2,active: 70.8 µM
22,CCOC(=O)c1cnc2nc(NCc3cccc(Br)c3)[nH]n2c1=O,inactive
23,CCOC(=O)C1=C(C)N=c2s/c(=C\c3cccc(OCC(=O)O)c3)c(=O)n2C1c1ccccc1 (stereo unspecified),inactive
24,Cc1cccc(NC(=O)COC(=O)c2cccc3c2C(=O)c2ccccc2C3=O)c1C,"inconclusive: 17.8 µM [inhibitor, full curve]"

row,Structure (SMILES),Potency
1,COc1ccc(/C(C)=N/NC(=S)NCCc2ccccc2)c(O)c1,"inconclusive: 8.91 µM [inhibitor, full curve]"
2,O=C(COC(=O)c1cc(=O)[nH]c2ccccc12)Nc1nc(-c2ccccc2)cs1,"inconclusive: 79.4 µM [inhibitor, single point]"
3,O=C(c1cc(-c2cccs2)nc2ccccc12)N1CCN(c2ccccc2)CC1,"inconclusive: 28.2 µM [inhibitor, full curve]"
4,COc1ccccc1CNS(=O)(=O)c1ccc(-c2cnc(C3CC3)o2)cc1,active: 89.1 µM
5,Cc1ccc2c(c1)C(C)(C)[C@]1(C)NC(=O)CCN21,"inconclusive: 56.2 µM [inhibitor, partial curve]"
6,O=[N+]([O-])c1cc(-c2ccc(/C=N/c3nc4ccccn4c3-c3ccco3)o2)ccc1Cl,active: 44.7 µM
7,Cc1ccc(-n2nc3c(=O)n(CCCC(=O)NCc4ccc(C)o4)nc(C)c3c2C)cc1,"inconclusive: 79.4 µM [inhibitor, single point]"
8,Cc1c(C)n(C)c2ccc(C(=O)NCc3cccc(F)c3)cc12,"inconclusive: 35.5 µM [inhibitor, full curve, poor fit]"
9,Cc1cnc(C(=O)OCC(=O)NC(=O)c2ccccc2)cn1,"inconclusive: 100 µM [inhibitor, single point]"
10,CC(C)Cn1c(-c2ccc(Br)cc2)c[nH]c1=S,"inconclusive: 11.2 µM [inhibitor, partial curve]"
11,CC(=O)Nc1sc(N/N=C/c2ccccc2)nc1-c1ccc(C)cc1,"inconclusive: 35.5 µM [inhibitor, full curve, poor fit]"
12,CCOC(=O)CSc1nnc2n(-c3ccccc3)c(=O)c3c4c(sc3n12)CC(C(C)(C)C)CC4 (stereo unspecified),"inconclusive: 56.2 µM [inhibitor, partial curve]"
13,O=C(CNC(=O)c1cccc(F)c1)N/N=C/c1ccc(O)c([N+](=O)[O-])c1,inactive
14,COc1cc2c(cc1NC(=O)COc1ccc(Cl)cc1Br)oc1ccccc12,inactive
15,CCOC(=O)c1nnn(-c2nonc2-n2cccc2)c1CCl,"inconclusive: 79.4 µM [inhibitor, partial curve]"
16,COc1ccc(NC(=O)CN(C)C(=O)c2cccc(-n3cccc3)c2)cc1,active: 11.2 µM
17,O=C(O)CSc1c2c(nc3cc(C(=O)N4CCOCC4)ccc13)CCCC2,active: 70.8 µM
18,Cc1ccc(N/N=C(\Cc2nc3ccccc3[nH]2)c2ccccc2)cc1,"inconclusive: 70.8 µM [inhibitor, single point]"
19,O=C(Oc1cccc(C(=S)N2CCOCC2)c1)c1cc([N+](=O)[O-])cc([N+](=O)[O-])c1,"inconclusive: 39.8 µM [inhibitor, partial curve]"
20,CC(C)N=C1NN=C(c2ccc(Cl)c(Cl)c2)CS1,"inconclusive: 44.7 µM [inhibitor, partial curve]"
21,Cc1ccc(N2CCN(c3ncccc3[N+](=O)[O-])CC2)c(C)c1,active: 28.2 µM
22,c1ccc(CN=C2Nc3ccccc3CS2)nc1,"inconclusive: 35.5 µM [inhibitor, full curve]"
23,O=C(Nc1nnc(-c2ccc(Br)cc2)o1)c1ccco1,active: 79.4 µM
24,COc1nn(CC(=O)N2N=C(C)CC2(O)C(F)F)cc1[N+](=O)[O-] (stereo unspecified),inactive

row,Structure (SMILES),Potency
1,O=C(NNC(=S)NC(=O)c1ccccc1[N+](=O)[O-])c1ccccc1Cl,inactive
2,CCOc1c(C)cnc2c1c(=O)n(Cc1ccccc1F)c(=O)n2C,inactive
3,Cc1ccc2sc(N3CCN(CCNC(=O)c4ccco4)CC3)nc2c1C,"inconclusive: 79.4 µM [inhibitor, single point]"
4,COC(=O)Nc1ccc2c(c1)N(C(=O)CCN1CCN3CCCC3C1)c1ccccc1CC2 (stereo unspecified),"inconclusive: 79.4 µM [inhibitor, single point]"
5,O=C(NNC(=S)NCc1ccco1)c1cccs1,inactive
6,Cc1noc(/C=C/c2ccco2)c1S(=O)(=O)N1CCC(C(=O)NCc2ccco2)CC1,"inconclusive: 89.1 µM [inhibitor, single point]"
7,Cc1onc(-c2ccccc2Cl)c1C(=O)NC(=S)NCc1cccnc1,"inconclusive: 100 µM [inhibitor, single point]"
8,O=C(Nc1ccccc1)c1ccc(N2CCN(c3ccccn3)CC2)c(S(=O)(=O)N2CCOCC2)c1,inactive
9,N#CC1=C2SCN(Cc3ccco3)CN2C(=O)CC1c1cccc2ccccc12 (stereo unspecified),"inconclusive: 79.4 µM [inhibitor, single point]"
10,COc1ccc(NC(=O)CSc2nnc(-c3ccccc3)n2Cc2ccco2)c(OC)c1,"inconclusive: 89.1 µM [inhibitor, single point]"
11,CCOc1ccc(NC(=S)Nc2cc(C)[nH]n2)cc1,"inconclusive: 79.4 µM [inhibitor, single point]"
12,O=C(c1cccc2ccccc12)C1CCCN(C(=O)c2ccc(N3CCOCC3)cc2)C1 (stereo unspecified),"inconclusive: 22.4 µM [inhibitor, full curve]"
13,CC(C)c1ccc2c(c1)C(c1ccc(N3CCOCC3)cc1)=NNC(c1cccs1)=N2,"inconclusive: 8.91 µM [inhibitor, partial curve]"
14,O=C(Nc1ccc2c(c1)OCCO2)C1CCCN1C(=O)Nc1ccc(F)cc1 (stereo unspecified),"inconclusive: 63.1 µM [inhibitor, partial curve]"
15,COc1ccc(C(=O)Nc2ccc(C(=O)OCc3cc(=O)n4nc(C5CC5)sc4n3)cc2)cc1,inactive
16,CCCOc1ccc(OCCOCCN2CCc3ccccc3C2)cc1,active: 50.1 µM
17,Cc1cc(NC(=O)CSc2nnc(-c3ccc(Br)o3)n2Cc2ccccc2)no1,inactive
18,COc1ccc(Nc2nccc(-c3cccc(N)c3)n2)cc1,active: 56.2 µM
19,CCN(CCNc1ccc(Cl)cc1[N+](=O)[O-])C(=O)c1cc([N+](=O)[O-])c(N(C)C)cc1OC,"inconclusive: 79.4 µM [inhibitor, single point]"
20,Cc1cccc(N2CCN(C(=O)c3cc(C)oc3C)CC2C)c1 (stereo unspecified),"inconclusive: 79.4 µM [inhibitor, single point]"
21,Oc1ccccc1C(Nc1nccs1)c1ccc2cccnc2c1O (stereo unspecified),active: 28.2 µM
22,CCc1ccc(C(c2c(C)nn(-c3ccccc3)c2N)c2c(C)nn(-c3ccccc3)c2N)cc1,"inconclusive: 28.2 µM [inhibitor, partial curve]"
23,COc1cc(F)c(S(=O)(=O)Nc2c(C)n(C)n(-c3ccccc3)c2=O)cc1OC,inactive

# Source: PubChem BioAssay AID504333 (National Center for Advancing Translational Sciences (NCATS), 2011)
